The source of these data is the supplement of paper PMC7826260.

The other results are listed elsewhere or left out. One pool of 16,384 single-stranded DNAs met each Rep nickase domain in vitro (1 h at 37 °C, 3 µM enzyme); the outer parts of the 90-letter strands are left off. The score is log2 (uncut reads / reads without enzyme); uncut sequences lie near 0, cut ones below; no hit call is given. The scaling is to total reads; values above 0 arise when much of the pool is cut.

One experiment relates to T1, Rep nickase domain of chickpea chlorotic dwarf virus.
T1 sequence (Rep 1-124, printed without the tag): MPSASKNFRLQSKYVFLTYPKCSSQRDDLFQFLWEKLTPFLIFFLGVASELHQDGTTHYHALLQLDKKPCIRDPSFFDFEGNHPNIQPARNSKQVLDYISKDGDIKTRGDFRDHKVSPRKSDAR
The experiment can be described thus: uncleaved DNA left, log2 of reads against the no-enzyme library (log2 ratio); higher = less cleavage (more negative = more Rep cleavage of the k-mer); sequences stand for … in CTCGTCCG…ACCGGAGA
As to the method:
(§1)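 A pool of 90-nt single-stranded DNAs with seven random bases just before the constant AC of the nick site (name = the seven bases) was cut by 3 µM recombinant His6-SUMO-tagged Rep nickase domain (300 nM DNA, 50 mM HEPES pH 8.0, 50 mM NaCl, 1 mM MnCl2, 1 h, 37 °C, three replicates). Uncut DNA was amplified and sequenced.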
Regarding GCCGAGC, the “uncleaved DNA left (log2)” value was found to be 0.974.

For the sequence GGCAAGC, the “uncleaved DNA left (log2)” value came to 1.2.

Take AGGTTTT: the “uncleaved DNA left (log2)” value was -0.922.

As for TTGGGAC, the “uncleaved DNA left (log2)” value came out at 1.94.

On to CCGGCAT, for which the “uncleaved DNA left (log2)” value turned out to be 1.02.

Consider TTAAGAT, for which the “uncleaved DNA left (log2)” value is -2.6.

Consider CACTGGC, for which the “uncleaved DNA left (log2)” value is -0.234.

Consider ATCCGAC, for which the “uncleaved DNA left (log2)” value was determined as 0.0403.

As to CTCTCCA, the “uncleaved DNA left (log2)” value was -0.31.

On to CGTGTAC, for which the “uncleaved DNA left (log2)” value was determined as 0.143.

Consider TACCTAG, for which the “uncleaved DNA left (log2)” value is -1.05.

Regarding CCTACGG, the “uncleaved DNA left (log2)” value is 1.11.

For AAACGGC, the “uncleaved DNA left (log2)” value was -0.265.

With CCGCTGG, the “uncleaved DNA left (log2)” value is 0.133.

Consider CCTCTGC, for which the “uncleaved DNA left (log2)” value is -0.959.

With GGGTATC, the “uncleaved DNA left (log2)” value came to 1.85.

Turning to ATAACAT, the “uncleaved DNA left (log2)” value is -0.544.

As for CTCGTTA, the “uncleaved DNA left (log2)” value is -1.09.

With ATACGTC, the “uncleaved DNA left (log2)” value was -0.823.

Regarding TCCTCGG, the “uncleaved DNA left (log2)” value was 1.37.

As to TCACAAA, the “uncleaved DNA left (log2)” value is -0.084.

As to CGTGCAA, the “uncleaved DNA left (log2)” value amounted to 0.159.

Take GTAATGC: the “uncleaved DNA left (log2)” value is 0.283.

With TCGACGC, the “uncleaved DNA left (log2)” value stood at 0.253.

Turning to CATGGCG, the “uncleaved DNA left (log2)” value came to 1.06.

TGCATAC: the “uncleaved DNA left (log2)” value is 0.356.

For GCCCAAC, the “uncleaved DNA left (log2)” value is -0.268.

Regarding GATACAG, the “uncleaved DNA left (log2)” value is -0.038.

With CCAGTAT, the “uncleaved DNA left (log2)” value is -0.193.

Consider GACGCTT, for which the “uncleaved DNA left (log2)” value is -1.56.

For the sequence TCTCGTG, the “uncleaved DNA left (log2)” value was -0.917.

As for GAAGGCG, the “uncleaved DNA left (log2)” value was 0.534.

On to AGGCTTA, for which the “uncleaved DNA left (log2)” value was -0.135.

In the case of CCTAATG, the “uncleaved DNA left (log2)” value was -0.588.

As to ATGGAGG, the “uncleaved DNA left (log2)” value was 0.528.

For TGGCTAG, the “uncleaved DNA left (log2)” value is -0.535.

Take GGCGAAC: the “uncleaved DNA left (log2)” value came out at 1.08.

In the case of GTTCAGT, the “uncleaved DNA left (log2)” value stood at 0.819.

As for TCGGTGC, the “uncleaved DNA left (log2)” value was -0.67.

As to CAGGAAT, the “uncleaved DNA left (log2)” value was 1.6.

The next experiment deals with T2, Rep nickase domain of faba bean necrotic yellows virus.
T2 sequence (Rep 1-98, printed without the tag): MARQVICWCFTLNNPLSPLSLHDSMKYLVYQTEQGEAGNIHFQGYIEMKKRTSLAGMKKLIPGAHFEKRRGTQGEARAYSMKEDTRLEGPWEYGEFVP
The experiment is described as above. The protocol: as §1
As to GCCGAGC, the “uncleaved DNA left (log2)” value was 0.0722.

Turning to GGCAAGC, the “uncleaved DNA left (log2)” value is -0.116.

For the sequence AGGTTTT, the “uncleaved DNA left (log2)” value is -0.218.

In the case of TTGGGAC, the “uncleaved DNA left (log2)” value was -0.0867.

As to CCGGCAT, the “uncleaved DNA left (log2)” value came to 0.0348.

Turning to TTAAGAT, the “uncleaved DNA left (log2)” value is -0.0542.

For the sequence CACTGGC, the “uncleaved DNA left (log2)” value came out at 0.033.

With ATCCGAC, the “uncleaved DNA left (log2)” value was 0.0209.

For the sequence CTCTCCA, the “uncleaved DNA left (log2)” value was -0.0535.

On to CGTGTAC, for which the “uncleaved DNA left (log2)” value was determined as 0.068.

With TACCTAG, the “uncleaved DNA left (log2)” value is 0.216.

CCTACGG: the “uncleaved DNA left (log2)” value is -0.0315.

Consider AAACGGC, for which the “uncleaved DNA left (log2)” value amounted to 0.0187.

CCGCTGG: the “uncleaved DNA left (log2)” value amounted to 0.0896.

For the sequence CCTCTGC, the “uncleaved DNA left (log2)” value was -0.132.

In the case of GGGTATC, the “uncleaved DNA left (log2)” value is 0.0341.

On to ATAACAT, for which the “uncleaved DNA left (log2)” value was -0.0192.

For the sequence CTCGTTA, the “uncleaved DNA left (log2)” value is -0.163.

Consider ATACGTC, for which the “uncleaved DNA left (log2)” value is -0.0377.

Take TCCTCGG: the “uncleaved DNA left (log2)” value came to 0.00425.

For TCACAAA, the “uncleaved DNA left (log2)” value is 0.0845.

As to CGTGCAA, the “uncleaved DNA left (log2)” value is -0.00902.

For GTAATGC, the “uncleaved DNA left (log2)” value is 0.0847.

For TCGACGC, the “uncleaved DNA left (log2)” value is -0.107.

For the sequence CATGGCG, the “uncleaved DNA left (log2)” value is -0.0321.

As to TGCATAC, the “uncleaved DNA left (log2)” value was 0.046.

For GCCCAAC, the “uncleaved DNA left (log2)” value is -0.0993.

Take GATACAG: the “uncleaved DNA left (log2)” value was found to be 0.0548.

As for CCAGTAT, the “uncleaved DNA left (log2)” value was found to be 0.0388.

With GACGCTT, the “uncleaved DNA left (log2)” value stood at 0.122.

Take TCTCGTG: the “uncleaved DNA left (log2)” value is -0.101.

In the case of GAAGGCG, the “uncleaved DNA left (log2)” value was 0.0316.

For the sequence AGGCTTA, the “uncleaved DNA left (log2)” value stood at 0.12.

As to CCTAATG, the “uncleaved DNA left (log2)” value was 0.0106.

For the sequence ATGGAGG, the “uncleaved DNA left (log2)” value was 0.0857.

For TGGCTAG, the “uncleaved DNA left (log2)” value is 0.137.

As to GGCGAAC, the “uncleaved DNA left (log2)” value is 0.0996.

Consider GTTCAGT, for which the “uncleaved DNA left (log2)” value is -0.0222.

In the case of TCGGTGC, the “uncleaved DNA left (log2)” value was -0.0506.

Regarding CAGGAAT, the “uncleaved DNA left (log2)” value was -0.118.

A further experiment deals with T3, Rep nickase domain of maize striate mosaic virus.
T3 sequence (Rep 1-117, printed without the tag): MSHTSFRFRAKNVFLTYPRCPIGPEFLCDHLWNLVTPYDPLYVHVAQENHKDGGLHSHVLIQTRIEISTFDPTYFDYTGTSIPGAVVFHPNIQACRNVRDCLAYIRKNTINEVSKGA
The description is as above. As to the method: as §1
With GCCGAGC, the “uncleaved DNA left (log2)” value came to 0.693.

On to GGCAAGC, for which the “uncleaved DNA left (log2)” value is 1.55.

With AGGTTTT, the “uncleaved DNA left (log2)” value turned out to be 0.763.

On to TTGGGAC, for which the “uncleaved DNA left (log2)” value amounted to 2.19.

Regarding CCGGCAT, the “uncleaved DNA left (log2)” value amounted to 1.32.

Take TTAAGAT: the “uncleaved DNA left (log2)” value was 0.887.

Regarding CACTGGC, the “uncleaved DNA left (log2)” value was -0.826.

Take ATCCGAC: the “uncleaved DNA left (log2)” value is -0.696.

As for CTCTCCA, the “uncleaved DNA left (log2)” value amounted to 0.452.

For the sequence CGTGTAC, the “uncleaved DNA left (log2)” value turned out to be 0.538.

In the case of TACCTAG, the “uncleaved DNA left (log2)” value was -1.01.

CCTACGG: the “uncleaved DNA left (log2)” value was 1.61.

Take AAACGGC: the “uncleaved DNA left (log2)” value was -0.722.

CCGCTGG: the “uncleaved DNA left (log2)” value is -0.173.

For the sequence CCTCTGC, the “uncleaved DNA left (log2)” value is -1.23.

For the sequence GGGTATC, the “uncleaved DNA left (log2)” value was 2.12.

Turning to ATAACAT, the “uncleaved DNA left (log2)” value worked out at 0.217.

With CTCGTTA, the “uncleaved DNA left (log2)” value was -0.882.

ATACGTC: the “uncleaved DNA left (log2)” value was -0.965.

As for TCCTCGG, the “uncleaved DNA left (log2)” value stood at 1.93.

On to TCACAAA, for which the “uncleaved DNA left (log2)” value was -0.418.

Turning to CGTGCAA, the “uncleaved DNA left (log2)” value was -0.136.

GTAATGC: the “uncleaved DNA left (log2)” value is -0.474.

As for TCGACGC, the “uncleaved DNA left (log2)” value is -0.00494.

As to CATGGCG, the “uncleaved DNA left (log2)” value was 0.565.

In the case of TGCATAC, the “uncleaved DNA left (log2)” value stood at 0.483.

GCCCAAC: the “uncleaved DNA left (log2)” value came to 0.0274.

As for GATACAG, the “uncleaved DNA left (log2)” value is -0.413.

On to CCAGTAT, for which the “uncleaved DNA left (log2)” value was determined as 0.0863.

Turning to GACGCTT, the “uncleaved DNA left (log2)” value came out at 0.981.

TCTCGTG: the “uncleaved DNA left (log2)” value was -1.21.

For the sequence GAAGGCG, the “uncleaved DNA left (log2)” value is -0.41.

AGGCTTA: the “uncleaved DNA left (log2)” value was determined as 0.527.

For the sequence CCTAATG, the “uncleaved DNA left (log2)” value was -1.19.

As for ATGGAGG, the “uncleaved DNA left (log2)” value was -0.1.

With TGGCTAG, the “uncleaved DNA left (log2)” value was -0.693.

Take GGCGAAC: the “uncleaved DNA left (log2)” value stood at 1.41.

For the sequence GTTCAGT, the “uncleaved DNA left (log2)” value is 1.39.

In the case of TCGGTGC, the “uncleaved DNA left (log2)” value was -0.963.

With CAGGAAT, the “uncleaved DNA left (log2)” value was determined as 1.98.
